Inconclusive means that the source gave no clear call. Such entries were picked first, then a sample of the others. Potencies of inconclusive entries are left out as doubtful fits. Active and inactive are the calls of the source. Calls come from the whole dose curve; as a rule, active = well fitted cell-killing curve with a large enough effect in the repeat runs; inconclusive = weak or mixed curves, or effect the other way; inactive = flat fitted curve, though single readings scatter.
Experiment: qHTS assay to identify small molecule antagonists of the androgen receptor (AR) signaling pathway using the MDA cell line - cell viability counter screen (AID 743041; note: nearly all actives have a fitted effect of over 45% in size)
Settings: MDA-kb2 viability, CellTiter-Fluor, 16 h, cells co-treated with R1881 androgen agonist; viability change, negative = cytotoxic: at 70.3 µM (top of the series)
Source text: National Center for Advancing Translational Sciences [NCATS]
NIH Chemical Genomics Center [NCGC]
U.S. Environmental Protection Agency [EPA]
National Institutes of Environmental Health Sciences [NIEHS]
National Toxicology Program [NTP]
U.S. Food and Drug Administration [FDA]
Androgen receptor (AR), a nuclear hormone receptor, plays a critical role in AR-dependent prostate cancer and other androgen related diseases. Endocrine disrupting chemicals (EDCs) and their interactions with steroid hormone receptors like AR may cause disruption of normal endocrine function as well as interfere with metabolic homeostasis, reproduction, developmental and behavioral functions. To identify the compounds that inhibit AR signaling, MDA-kb2 AR-luc cell line (from ATCC, deposited by Wilson et al.) was used to screen the Tox21 10K compound library. MDA-kb2 AR-luc cell line is human breast carcinoma cell line that was stably transfected with a luciferase reporter gene under control of the MMTV promoter containing response elements for both androgen receptor (AR) and glucocorticoid receptor (GR). The cytotoxicity of the Tox21 compound library against the MDA-kb2 AR-luc cell line was tested in parallel by measuring the cell viability using CellTiter-Fluor assay (Promega, Madison, WI) in the same wells.
Tox21 Assay Protocol Summary:
MDA-kb2 AR-luc cells were dispensed at 3,000 cells/4 uL/well of culture medium into white wall/solid-bottom 1536-well plates using a Multidrop Combi (ThermoFisher Scientific, Waltham, MA) dispenser. After the assay plates were incubated at a 37C and 0% CO2 for 5 hr, 23 nL of compounds dissolved in DMSO, positive controls or DMSO only was transferred to the assay plate by a Pintool station (Kalypsys, San Diego, CA), followed by addition of 1 uL of agonist (R1881) in culture medium using a Bioraptr Flying Reagent Dispenser (FRD) workstation (Beckman Coulter, Indianapolis, IN, USA). The plates were incubated at a 37C and 0% CO2 for 16 h. After 15.5 h incubation, 1uL of CellTiter-Fluor reagent (Promega) was added using a Bioraptr FRD to each plate for measuring cytotoxicity. The fluorescence intensity was quantified on a ViewLux plate reader (PerkinElmer, Shelton, CT) following 30 min incubation at 37C and 0% CO2.
% is set by controls: 0 for no effect and ±100 for the full control effect; potency is the fitted concentration of half-maximal effect; tags give direction and shape of the fitted curve.

| Compound | Potency | viability change, negative = cytotoxic |
| --- | --- | --- |
| C[N+]1(CCF)[C@@H]2CC[C@H]1CC(OC(=O)C(O)(c1ccccc1)c1ccccc1)C2 (stereo not given in full) | inactive | – |
| COc1ccc(OC)c(C[C@H](C)N)c1 | inconclusive [cytotoxic, partial curve, poor fit] | – |
| N#CC(C#N)=Cc1cc(O)c(O)c(O)c1 | inconclusive [cytotoxic, partial curve] | – |
| CN(C)NC(=O)CCC(=O)O | – | inconclusive: 31.1% |
| COC1=CC(=O)O[C@@H](/C=C/c2ccc3c(c2)OCO3)C1 | inactive | – |
| O=c1[nH]c2ccccc2c(=O)o1 | inactive | – |
| CC[C@H]1[C@@H]2C[C@H]3[C@@H]4N(C)c5ccccc5[C@]45C[C@@H](C2[C@H]5O)N3[C@@H]1O (stereo not given in full) | inactive | – |
| Cc1ccc([N+](=O)[O-])cc1 | inconclusive [rising, full curve, poor fit] | – |
| CCCSc1cc(OC)c(CCN)cc1OC | inconclusive [cytotoxic, full curve, poor fit] | – |
| CCOC(=O)COc1ccc(Cl)cc1Cl | inconclusive [rising, single point] | – |
| CC(C)=CCN1CC[C@@]2(C)c3cc(O)ccc3C[C@@H]1[C@@H]2C | inconclusive [cytotoxic] | – |
| COc1cccc2c1cc([N+](=O)[O-])c1c(C(=O)O)cc3c(c12)OCO3 | active: 34.4 µM | – |
| C[C@]12CC[C@H](O)C[C@H]1CC[C@@H]1[C@@H]2CC[C@]2(C)[C@@H](c3ccc(=O)oc3)C[C@H]3O[C@]132 | inconclusive [cytotoxic, partial curve] | – |
| CCOP(=S)(OCC)SCSc1ccc(Cl)cc1 | inactive | – |
| COc1ccc2c3c1O[C@H]1[C@@H](O)C=C[C@H]4[C@@H](C2)NCC[C@@]341 | inconclusive [rising, full curve, poor fit] | – |
| CCC1(CC)C(=O)NC(=O)NC1=O | inactive | – |
| [P]#[In] | inactive | – |
| Cc1cccc(C)c1NC1=NCCCS1 | inactive | – |
| Oc1cccc[c]1[Hg][Cl] | active: 7.5 µM | – |
| CC(C)C(C)(N)C#N (stereo not given) | inconclusive [rising, single point] | – |

| Compound | Potency | viability change, negative = cytotoxic |
| --- | --- | --- |
| [H+].[H+].[Hg+2].[O-]B([O-])[O-].[c-]1ccccc1 | active: 13.3 µM | – |
| O=c1c2ccccc2[se]n1-c1ccccc1 | inconclusive [cytotoxic, partial curve, poor fit] | – |
| C[C@@H]1[C@H]2Cc3ccc(O)cc3[C@]1(C)CCN2C | inactive | – |
| O=[N+]([O-])c1cc([As](=O)(O)O)ccc1O | inconclusive [cytotoxic, partial curve] | – |
| COc1cc(C[C@H](C)N)c(OC)cc1C | inconclusive [cytotoxic, single point] | – |
| CC(C)=CCN1CC[C@]2(C)c3cc(O)ccc3C[C@H]1[C@H]2C | – | inconclusive: -38.4% [cytotoxic] |
| O=C(O)Cc1ccccc1 | inconclusive | – |
| O.O.O.O=C([O-])C(O)C(O)C(=O)[O-].O=C([O-])C(O)C(O)C(=O)[O-].[K+].[K+].[Sb].[Sb] (stereo not given) | active: 18.8 µM | – |
| COC(=O)c1ccc(CBr)cc1 | inactive | – |
| CCCCc1ccc(O)cc1 | inconclusive [cytotoxic, partial curve, poor fit] | – |
| Clc1nc(Cl)nc(Nc2ccccc2Cl)n1 | – | inconclusive: 32% |
| COC(COC(N)=O)C1=C(N2CC2)C(=O)C(C)=C(N2CC2)C1=O (stereo not given) | active: 13.3 µM | – |
| CN1C(=S)CN=C(c2ccccc2)c2cc(Cl)ccc21 | inconclusive [rising, partial curve, poor fit] | – |
| COC(=O)[C@]12CCC(C)(C)C[C@H]1[C@H]1C(=O)C=C3[C@@]4(C)C=C(C#N)C(=O)C(C)(C)[C@@H]4CC[C@@]3(C)[C@]1(C)CC2 | active: 6.68 µM | – |
| Cc1ccc(S(=O)(=O)N[C@@H](CCCCN)C(=O)CCl)cc1 | active: 21.1 µM | – |
| N#CC(Br)(Br)C(N)=O | inconclusive [cytotoxic, partial curve, poor fit] | – |
| C#CC(C)(C)O | inactive | – |
| CCC1(CC)C(=O)NC(=O)N(C)C1=O | inconclusive [rising, full curve, poor fit] | – |
| [Cl-].[Cl-].[Cl-].[Fe+3] | inactive | – |
| CCCN1CCC[C@@H]2Cc3nc(N)ncc3C[C@H]21 | inactive | – |
